From PMC12136788
The list shows a part of the results.

T1: UNK ZnF1-3 (human, UniProt Q9C0B0 31-174)
T1 sequence: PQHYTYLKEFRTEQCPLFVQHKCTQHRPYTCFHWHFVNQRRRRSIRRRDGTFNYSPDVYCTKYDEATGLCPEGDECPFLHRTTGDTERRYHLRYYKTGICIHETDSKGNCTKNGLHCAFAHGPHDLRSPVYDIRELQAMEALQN

B1: chr9:78326885:78326886:-_ENSMUSG00000037742_ENSMUST00000042235|mus_mus|FALSE|FALSE (ssRNA)
RNA: GGGAGUUCUACAGUCCGACGAUCCAGCUUCUUACCAGAACGACGAUCGAUCUUUUCUUUAAGCUCAGCAAACUUGCAUGCUAUGUGGGCUGUGUGACAAUCCAGAACAGGAGCGUAGCCAGCACUGAUUUGGCCUGGAUGGUUCAACAGAGGAUUGAGCAUCA
B2: chr1:225700702:225700703:-_ENSG00000154380_ENST00000366843|hu_hu|FALSE|FALSE (ssRNA)
RNA: GGGAGUUCUACAGUCCGACGAUCACCAAUAGCAUUCCCUCCACUUGGGAAAGAGGUAUCCUCCAUCCGUGACACUUUCCUAAGUUUUGCUCCGGCAAUUGCAGCUGCAAGUCCAGUUAAAGGGCGAUUGUCUUCUGACAUGGACAACAGAGGAUUGAGCAUCA
B3: 17198978_17206553_600_3pUTR_ENSG00000003987_ENST00000180173|human|control|control (ssRNA)
RNA: GGGAGUUCUACAGUCCGACGAUCGGGGCUGGCUGCUCCGGCAGAUGGAGGCGUGGUUAUCUUUAUAAUAGUAAGAAAGGACAGGAAAUCGCCGUCUACUCCGGAAUUUGGAACUCCCCACUAUGAUGUGUGCCGUGGCCGAUUCAACAGAGGAUUGAGCAUCA
B4: chr2:74435765:74435766:+_ENSG00000065911_ENST00000470592|hu_hu|FALSE|FALSE (ssRNA)
RNA: GGGAGUUCUACAGUCCGACGAUCCCCCAUGGAGUAGCCGGUAACAUGGAAUACUGAUCCAAACACAUUCGUCCUACAUUAAUUACAUGAAAGCCAUCAACAUCCUUGUCUGGAGAAACAGCAUUGCAGAUCCUUCUCUCAUCACAACAGAGGAUUGAGCAUCA
B5: chr19:37063429:37063430:+_ENSMUSG00000040565_ENSMUST00000099494|mus_hu|FALSE|FALSE (ssRNA)
RNA: GGGAGUUCUACAGUCCGACGAUCCAUAGCAUCCCAGAGAUGUGGCAACUUCACUGCCAUUUCACCACCAAAAUGCUUUACUAUAGUUGUCAAAGCAAAUUCAGCUCCUCUCCGUUGUACCAGGUAAGGCUUCUGGGCCUCAUCCAACAGAGGAUUGAGCAUCA
B6: chr5:43656058:43656059:+_ENSG00000112992_ENST00000512996|hu_mus|motif|central (ssRNA)
RNA: GGGAGUUCUACAGUCCGACGAUCGUAAGCCACAAUCUUGGUGAAAUUUGACGUGGCAUCCAUUGCAAAAUGUGGAUACUCGGCGAUGUACUCGGCCAUGCAGGUAAGAACUGCUGCCAGCCCCACCAAACUGUGGAAAGCAGCCAACAGAGGAUUGAGCAUCA

These binders were tested against T1, UNK ZnF1-3 (assay: nsRBNS (natural sequence RNA bind-n-seq); RBNS binding buffer (assumed for nsRBNS): 25 mM Tris pH 7.5, 150 mM KCl, 3 mM MgCl2, 0.01% Triton X-100, 500 ug/ml BSA, 20 U/ml SUPERase-In, 4 C; UNK is unkempt and MSI1 is Musashi-1; names of the RNAs are library labels; protein concentration not given here; high values mean tight binding).
Binder B1 has a binding signal of 0.866 enrichment R. Binder B2 has a binding signal of 0.815 enrichment R. Binder B3 has a binding signal of 1.54 enrichment R. With B4 the binding signal was 1.5 enrichment R. B5 gave a binding signal of 0.828 enrichment R. B6 gave a binding signal of 0.849 enrichment R.
